Our source for the binding signal (RPM ratio (pull-down/input)) values is publication PMC12820563.

The list shows a part of the results. The list includes weakly bound sequences.

In this assay the target is T1, MBP-FoxP3dN (UniProt Q99JB6).
T1 sequence: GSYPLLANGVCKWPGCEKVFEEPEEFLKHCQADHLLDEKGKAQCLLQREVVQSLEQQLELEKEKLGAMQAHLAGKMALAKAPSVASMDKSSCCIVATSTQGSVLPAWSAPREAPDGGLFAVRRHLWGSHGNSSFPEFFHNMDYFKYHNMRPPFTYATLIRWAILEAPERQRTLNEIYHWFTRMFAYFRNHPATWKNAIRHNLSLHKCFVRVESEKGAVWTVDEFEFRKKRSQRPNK
Nature of the assay: PD-seq (MBP pull-down with sequencing). The conditions noted are these: 20 mM Tris-HCl pH 7.5, 100 mM NaCl, 1.5 mM MgCl2, 0.4 uM protein, 0.1 uM dsDNA library, 30 min, room temperature, amylose pull-down; high values mean tight binding; double strand, one strand shown.
Turning to “GATGATTGTTCTCCCAGCTGATGAATTTACGCGGTCGAGTAAACAAATTTTCCTAATCTTTCTGTTCAAGCGCCATCTAC”, the binding signal (RPM ratio (pull-down/input)) is 0.407.
Turning to “GATGATTGTTCTCCCAGCTGATGAATTCATCAACTCGAGTAAACAAATTTTCCTAATCTTTCTGTTCAAGCGCCATCTAC”, the binding signal (RPM ratio (pull-down/input)) was determined as 0.418.
Turning to “GATGATTGTTCTCCCAGCTGATGAATTATTTCCATCGAGTAAACAAATTTTCCTAATCTTTCTGTTCAAGCGCCATCTAC”, the binding signal (RPM ratio (pull-down/input)) came out at 0.352.
“GATGATTGTTCTCCCAGCTGATGAATTCTTAAAATCGAGTAAACAAATTTTCCTAATCTTTCTGTTCAAGCGCCATCTAC”: the binding signal (RPM ratio (pull-down/input)) is 0.218.
For “GATGATTGTTCTCCCAGCTGATGAATTGAAGAAATCGAGTAAACAAATTTTCCTAATCTTTCTGTTCAAGCGCCATCTAC”, the binding signal (RPM ratio (pull-down/input)) stood at 0.256.
Under “GATGATTGTTCTCCCAGCTGATGAATTTACAAACTCGAGTAAACAAATTTTCCTAATCTTTCTGTTCAAGCGCCATCTAC” stands 0.627; under “GATGATTGTTCTCCCAGCTGATGAATTCCCATTATCGAGTAAACAAATTTTCCTAATCTTTCTGTTCAAGCGCCATCTAC”, 0.458.
Under “GATGATTGTTCTCCCAGCTGATGAATTAGACCGGTCGAGTAAACAAATTTTCCTAATCTTTCTGTTCAAGCGCCATCTAC” stands 0.227; under “GATGATTGTTCTCCCAGCTGATGAATTGAAAATCTCGAGTAAACAAATTTTCCTAATCTTTCTGTTCAAGCGCCATCTAC”, 0.216.
Under “GATGATTGTTCTCCCAGCTGATGAATTTCTGCCTTCGAGTAAACAAATTTTCCTAATCTTTCTGTTCAAGCGCCATCTAC” stands 2.33.
“GATGATTGTTCTCCCAGCTGATGAATTAGTGTGTTCGAGTAAACAAATTTTCCTAATCTTTCTGTTCAAGCGCCATCTAC”: the binding signal (RPM ratio (pull-down/input)) was 3.52.
Under “GATGATTGTTCTCCCAGCTGATGAATTGCAGTTCTCGAGTAAACAAATTTTCCTAATCTTTCTGTTCAAGCGCCATCTAC” stands 1.13.
Under “GATGATTGTTCTCCCAGCTGATGAATTCTAGGGATCGAGTAAACAAATTTTCCTAATCTTTCTGTTCAAGCGCCATCTAC” stands 0.272; under “GATGATTGTTCTCCCAGCTGATGAATTGTTGGTTTCGAGTAAACAAATTTTCCTAATCTTTCTGTTCAAGCGCCATCTAC”, 5.31; under “GATGATTGTTCTCCCAGCTGATGAATTATGCCGATCGAGTAAACAAATTTTCCTAATCTTTCTGTTCAAGCGCCATCTAC”, 1.1.
“GATGATTGTTCTCCCAGCTGATGAATTTTAAAACTCGAGTAAACAAATTTTCCTAATCTTTCTGTTCAAGCGCCATCTAC”: the binding signal (RPM ratio (pull-down/input)) worked out at 0.218.
For “GATGATTGTTCTCCCAGCTGATGAATTCTTTTCGTCGAGTAAACAAATTTTCCTAATCTTTCTGTTCAAGCGCCATCTAC” the value was 0.311; for “GATGATTGTTCTCCCAGCTGATGAATTCCAAGTTTCGAGTAAACAAATTTTCCTAATCTTTCTGTTCAAGCGCCATCTAC”, 0.322.
For “GATGATTGTTCTCCCAGCTGATGAATTGTCTGTCTCGAGTAAACAAATTTTCCTAATCTTTCTGTTCAAGCGCCATCTAC” the value was 0.422; for “GATGATTGTTCTCCCAGCTGATGAATTGGCCACGTCGAGTAAACAAATTTTCCTAATCTTTCTGTTCAAGCGCCATCTAC”, 0.526; for “GATGATTGTTCTCCCAGCTGATGAATTGCTTCCATCGAGTAAACAAATTTTCCTAATCTTTCTGTTCAAGCGCCATCTAC”, 0.59.
For “GATGATTGTTCTCCCAGCTGATGAATTGAGGTTGTCGAGTAAACAAATTTTCCTAATCTTTCTGTTCAAGCGCCATCTAC” the value was 0.8; for “GATGATTGTTCTCCCAGCTGATGAATTCGTTAGGTCGAGTAAACAAATTTTCCTAATCTTTCTGTTCAAGCGCCATCTAC”, 0.853; for “GATGATTGTTCTCCCAGCTGATGAATTTGTTTGTTCGAGTAAACAAATTTTCCTAATCTTTCTGTTCAAGCGCCATCTAC”, 7.56.
Take “GATGATTGTTCTCCCAGCTGATGAATTGGAGTCATCGAGTAAACAAATTTTCCTAATCTTTCTGTTCAAGCGCCATCTAC”: the binding signal (RPM ratio (pull-down/input)) is 0.47.
For the sequence “GATGATTGTTCTCCCAGCTGATGAATTCGCCTAGTCGAGTAAACAAATTTTCCTAATCTTTCTGTTCAAGCGCCATCTAC”, the binding signal (RPM ratio (pull-down/input)) was determined as 0.345.
Take “GATGATTGTTCTCCCAGCTGATGAATTTTCGTTATCGAGTAAACAAATTTTCCTAATCTTTCTGTTCAAGCGCCATCTAC”: the binding signal (RPM ratio (pull-down/input)) turned out to be 0.607.
Turning to “GATGATTGTTCTCCCAGCTGATGAATTCCGACTATCGAGTAAACAAATTTTCCTAATCTTTCTGTTCAAGCGCCATCTAC”, the binding signal (RPM ratio (pull-down/input)) amounted to 0.64.
Under “GATGATTGTTCTCCCAGCTGATGAATTCGCGTAGTCGAGTAAACAAATTTTCCTAATCTTTCTGTTCAAGCGCCATCTAC” stands 0.558.
“GATGATTGTTCTCCCAGCTGATGAATTTCGACAGTCGAGTAAACAAATTTTCCTAATCTTTCTGTTCAAGCGCCATCTAC”: the binding signal (RPM ratio (pull-down/input)) was 0.471.
For “GATGATTGTTCTCCCAGCTGATGAATTTAAGCGATCGAGTAAACAAATTTTCCTAATCTTTCTGTTCAAGCGCCATCTAC” the value was 0.503; for “GATGATTGTTCTCCCAGCTGATGAATTATTTTGATCGAGTAAACAAATTTTCCTAATCTTTCTGTTCAAGCGCCATCTAC”, 1.11.
For “GATGATTGTTCTCCCAGCTGATGAATTGGGGACATCGAGTAAACAAATTTTCCTAATCTTTCTGTTCAAGCGCCATCTAC” the value was 0.475; for “GATGATTGTTCTCCCAGCTGATGAATTTCTGATTTCGAGTAAACAAATTTTCCTAATCTTTCTGTTCAAGCGCCATCTAC”, 0.41.
Under “GATGATTGTTCTCCCAGCTGATGAATTTTTTTTTTCGAGTAAACAAATTTTCCTAATCTTTCTGTTCAAGCGCCATCTAC” stands 0.217; under “GATGATTGTTCTCCCAGCTGATGAATTGGATCGCTCGAGTAAACAAATTTTCCTAATCTTTCTGTTCAAGCGCCATCTAC”, 0.278; under “GATGATTGTTCTCCCAGCTGATGAATTAGACCTATCGAGTAAACAAATTTTCCTAATCTTTCTGTTCAAGCGCCATCTAC”, 0.42.
As to “GATGATTGTTCTCCCAGCTGATGAATTGATATCGTCGAGTAAACAAATTTTCCTAATCTTTCTGTTCAAGCGCCATCTAC”, the binding signal (RPM ratio (pull-down/input)) was found to be 0.869.
For “GATGATTGTTCTCCCAGCTGATGAATTGCTGTAATCGAGTAAACAAATTTTCCTAATCTTTCTGTTCAAGCGCCATCTAC” the value was 0.909; for “GATGATTGTTCTCCCAGCTGATGAATTTACTGGCTCGAGTAAACAAATTTTCCTAATCTTTCTGTTCAAGCGCCATCTAC”, 0.472.
